Measurements: PubChem BioAssay AID1508642 (National Center for Advancing Translational Sciences (NCATS), 2021)
The campaign covered roughly 43,000 compounds. About 200 (0.47%) were called active. About 12% were inconclusive and are not listed. Calls follow the shape of the dose curve; as a rule, active = well fitted cell-killing curve with a large enough effect; inconclusive = small, poorly fitted or top-dose-only effect, or effect the other way; inactive = flat fitted curve, though single readings scatter. The list shows a part of the results.

Test: Cell viability qHTS assay in S16 Pmp22-F2sN cells; also: nearly all actives have a fitted effect of over 65% in size
Conditions: S16 Pmp22-F2sN Schwann cells viability, CellTiter-Glo, 24 h; series mostly up to 57.5 µM; activity change, negative = cytotoxicity: at the top concentration
Method in brief: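 Used to flag compounds lowering reporter output through toxicity, this quantitative HTS measures ATP-based CellTiter-Glo luminescence in S16 Pmp22-F2sN Schwann cells after 24 h compound exposure at 37C.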
% is scaled to controls: 0 for no effect and ±100 for the full control effect.

Compound | activity change, negative = cytotoxicity
COc1ccc(OC)c(NC(=O)c2cc3c(=O)n4cccc(C)c4nc3n2C)c1 | inactive: 9.63%
COc1cc(OC)c(NC(=O)C(C)n2nc(-c3ccc(C)c(C)c3)ccc2=O)cc1Cl (stereo unspecified) | inactive: -28.9%
COc1cccc(NC(=O)CSc2nnc(NC(=O)NC3CCCCC3)s2)c1 | inactive: 5.14%
Cc1cccc(C)c1OCc1cc(=O)n2ccsc2n1 | inactive: -2.56%
CCCOc1ccccc1C(=O)Nc1nc2c(s1)CCCC2 | inactive: -5.14%
CN(Cc1ccccc1)C(=O)c1ccc2c(c1)N(Cc1ccc(Cl)cc1)C(=O)c1ccccc1S2=O (stereo unspecified) | inactive: -6.7%
Cc1oc(-c2ccc(Cl)cc2)nc1CN1CCCC(C(=O)NCc2ccc(Cl)cc2)C1 (stereo unspecified) | inactive: 16%
CCOC(=O)c1cnc2c(C)cc(C)cc2c1Nc1ccc(N2CCOCC2)cc1 | inactive: -24.3%
CCOC(=O)N1CCN(C(=O)c2cnn(-c3cccc(C)c3)c2-n2cccc2)CC1 | inactive: 2.67%
COc1cccc(NS(=O)(=O)c2ccc3[nH]cc(C(=O)N(C)Cc4ccco4)c(=O)c3c2)c1 | inactive: 5.4%
Cn1c(=O)c2c(c3ccccc31)OC(=O)CC2c1ccccc1 (stereo unspecified) | inactive: 10.3%
COc1ccc(NC(=O)c2ccc3c(=O)n4nc(Nc5ccccc5C)sc4nc3c2)cc1 | inactive: 11.3%
O=c1c2ccccc2n2c(-c3cccc(F)c3)nnc2n1Cc1ccccc1 | inactive: -14.7%
CCOc1ccc(N(CC)S(=O)(=O)N2CCCC(C(=O)NCc3ccc(SC)cc3)C2)cc1 (stereo unspecified) | inactive: -27.6%
COc1cccc(CNC(=O)NCc2noc3ccc(C)cc23)c1 | inactive: 8.88%
COc1ccc(N2CCN(C(=O)CCS(=O)(=O)c3cc(Br)cc4c3N(C(=O)C3CC3)CC4)CC2)cc1 | inactive: -1.46%
COc1ccc(NC(=O)CN2C(=O)COc3ccc(S(=O)(=O)N4CCOCC4)cc32)cc1Cl | inactive: 9.08%
COc1ccc(NC(=O)Nc2nnc(N3CCCCCC3)s2)c(OC)c1 | inactive: 4.82%
COc1ccc(C(=O)N2CCC(c3c[nH]c4ccccc34)(c3c[nH]c4ccccc34)CC2)cc1 | inactive: -20.2%
Cc1ccc(C)c(CN2C(=O)c3ccccc3S(=O)c3ccc(C(=O)NCCc4ccc(Cl)cc4)cc32)c1 (stereo unspecified) | inactive: 8.97%
COc1ccc(NC(=O)c2sc3nc(-c4cc5cccc(OC)c5oc4=O)[nH]c(=O)c3c2C)cc1 | inactive: 6.82%

Compound | activity change, negative = cytotoxicity
COc1ccc(NC(=O)c2cc(C3CC3)nc3c2c(C)nn3-c2ccc(C)cc2)cc1OC | inactive: 6.05%
CN(C)c1ccc(CNC(=O)C2CCN(S(=O)(=O)c3cn(C)cn3)CC2)cc1 | inactive: -8.16%
COc1ccccc1CNC(=O)c1oc2c(c1C)-c1nn(Cc3ccc(Cl)cc3)cc1CC2 | inactive: -4.76%
CCOc1ccc(Cn2c(CNS(=O)(=O)c3ccc([N+](=O)[O-])cc3)nc3cccnc32)cc1 | inactive: -1.27%
O=c1c2cc3c(nc2ncn1Cc1ccccc1F)CCCC3 | inactive: -4.32%
COc1ccc(C(=O)NCCSc2c(C)[nH]c3ccccc23)cc1 | inactive: -18%
COCCn1ccc2c(OCC(=O)NCc3ccc(F)cc3)cccc2c1=O | inactive: -0.942%
O=C(NC1CCCC1)c1ccc(CSc2nc3ccncc3n2Cc2ccc(F)cc2)cc1 | inactive: -3.24%
COc1ccc(-n2cc(C(=O)NC(C)c3ccccc3)c3ccccc3c2=O)cc1 (stereo unspecified) | inactive: 4.95%
Cc1ccc(N2CC(c3nnc(NC(=O)c4ccco4)s3)CC2=O)cc1C (stereo unspecified) | inactive: -0.24%
CCOc1ccc(NC(=O)c2ccc(-c3cccc(Cl)c3C)o2)cc1 | inactive: 11.8%
Cc1ccc(NC(=O)Cn2cc(S(=O)(=O)N3CCCC3)c(S(=O)(=O)N3CCCC3)c2)cc1C | inactive: -4.92%
CCc1ccc(-c2cc(C)no2)cc1S(=O)(=O)Nc1ccc(Cl)cc1 | inactive: -18.8%
COc1ccc(-c2noc(-c3ccc(NC(C)c4ccccc4)c([N+](=O)[O-])c3)n2)cc1OC (stereo unspecified) | inactive: 12%
COc1cccc(NC(=O)c2cc3c(=O)n(Cc4cccnc4)ccc3nc2C)c1 | inactive: -11.6%
Cc1ccc(-c2nc(S(=O)(=O)c3ccc(C)cc3)c(SCC(=O)NC3CCCCC3)o2)cc1 | inactive: -2.26%
COc1ccccc1CNC(=O)CCC1N=C2c3ccccc3N=C(SCC(=O)NCCc3ccc(OC)c(OC)c3)N2C1=O (stereo unspecified) | inactive: -16%
COc1cc(NC(=O)C(CCS(C)(=O)=O)N2Cc3ccccc3C2=O)cc(OC)c1OC (stereo unspecified) | inactive: -5.71%
CCCN1C(=O)c2[nH]nc(-c3ccc(F)cc3)c2C1c1ccccn1 (stereo unspecified) | inactive: 9.16%
CC1CN(C(=O)N2CCC(C(=O)NC3CCCCCC3)CC2)c2ccccc2O1 (stereo unspecified) | inactive: 11%
CN(C)c1ccc(NC(=O)CSC2=Nc3ccccc3C3=NC(CC(=O)NCc4ccccc4)C(=O)N23)cc1 (stereo unspecified) | inactive: 9.63%

Compound | activity change, negative = cytotoxicity
CCOC(=O)c1c(C)[nH]c(CCC(=O)NCc2ccccc2C)c1C | inactive: 15.5%
COc1ccc(CCNC(=O)c2nn(C)c3c2CSc2ccccc2-3)cc1OC | inactive: -19.3%
O=C(NCc1ccccc1)C(=O)NCC(c1cccnc1)N1CCN(c2ccccc2)CC1 (stereo unspecified) | inactive: -10.3%
O=C(c1ccco1)n1nc(-c2ccccc2)nc1NCc1ccccc1Cl | inactive: -1.74%
CC(=O)Nc1ccc(S(=O)(=O)NCCc2csc3nc(-c4cccc(C)c4)nn23)cc1 | inactive: -19.2%
Cc1ccc(N(Cc2cccs2)C(=O)COc2ccccc2[N+](=O)[O-])cc1 | inactive: -24.1%
CCc1ccc(NC(=O)CSc2nc3ccsc3c(=O)n2C(C)CC)cc1 (stereo unspecified) | inactive: -29.4%
O=C(NCc1ccccc1Cl)C1CCC(CNS(=O)(=O)c2ccc(Br)s2)CC1 (stereo unspecified) | inactive: -0.0024%
COc1ccccc1-n1c(SCC(=O)Nc2ccc(C)cc2)nc(O)cc1=O | inactive: 13.8%
Cc1ccc(-c2nn3c(-c4ccc(C)cc4)nnc3c3ccccc23)cc1 | inactive: 7.42%
Cc1ccc(NC(=O)c2ccc(Br)cc2)c(C(=O)c2ccccc2)c1 | inactive: 14.4%
Cc1nc2nc(SCC(=O)NCc3ccccc3)nn2c(C)c1Cc1ccccc1 | inactive: 0.346%
CC(C)CC(=O)Nc1ccc(Cl)c(-c2nc3ccccc3[nH]2)c1 | inactive: -6.43%
CCc1cccc(NC(=O)CN2C=NS(=O)(=O)c3ccccc32)c1 | inactive: -8.09%
CCOc1nc(NC(=O)NS(=O)(=O)Oc2ccccc2Cl)nc(-c2ccccc2)n1 | inactive: -0.694%
Cc1ccc(NC(=O)CCc2c(C)nc3nc(C)nn3c2C)c(Cl)c1 | inactive: 13.1%
COc1cc2nc(NCC(C)c3ccccc3)n3nc(-c4ccccc4)nc3c2cc1OC (stereo unspecified) | inactive: -3.23%
CCOC(=O)c1ccccc1NC(=O)N(Cc1ccco1)C1CCN(C(C)=O)CC1 | inactive: -14.4%
COc1ccccc1C(=O)Nc1ccc(C(=O)OCc2cc(=O)n3ccsc3n2)cc1 | inactive: -2.55%
